Results on 79 sequences are retold here after the supplement of paper PMC10126150.

Values marked as one replicate rest on one cluster of the flow cell; about a third of the high ones do not repeat.

The test system of this data set is ATP. In words: switch fluorescence ratio, 500 uM ATP over buffer (Cy3 cluster intensity, sum of 5 cycles each) (fold (ratio)); higher = stronger signal-on switching upon ATP binding; sequences stand for … in TCGTCGGCAGCGTCAGATGTGTATAAGAGACAGTTTTTTTTTTTTTTTTTTTTTTTTT…TC. As to conditions: aptamer strand: ATP DNA aptamer (quencher-CACCTGGGGGAGTATTGCGGAGGAAGG + anchor), 100 nM annealed; ATP concentration: 500 uM; one replicate. Summed up:
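Clusters with intensities outside 100-1000 RFU were excluded. The remaining Cy3-labelled switching-strand clusters on a modified Illumina MiSeq flow-cell had been annealed to 100 nM quencher-labelled ATP aptamer and imaged in selection buffer, then after 15 min with 500 uM ATP at 22 °C, for five cycles separated by NaOH stripping and re-annealing. The fluorescence ratio, averaged per switch-domain sequence, is each cluster's summed target-cycle Cy3 intensity over its summed buffer-cycle Cy3 intensity.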
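Note: ATP exposure 15 min at 22 °C before imaging.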

GTCAAACTT: the switch fluorescence ratio was 1.

As to TCAAAGGACG, the switch fluorescence ratio stood at 1.02. The figure for AATATCCAGC is 0.993. With GGGCTTTCA, the switch fluorescence ratio was 0.969. For the sequence AAGTGAAAAA, the switch fluorescence ratio was 1.02. The result for AAATTAAAAA reads 1.02. The result for GGTGGCATAC reads 2.29; that for GTGGGTCAA, 1.02. As to AAAGCTGACG, the switch fluorescence ratio was found to be 1.03. For ACCTATCAAA, the switch fluorescence ratio turned out to be 1.04. The figure for GATTGGACTT is 1.01; for CCACCCGGGT it is 1.06. Regarding GGTACTGTAC, the switch fluorescence ratio is 1.42. The result for TCTACTTTTC reads 1.05. The result for GTTAGCACCG reads 1.05. The figure for GCATCGAATC is 1.04; for AACCAACCTT it is 1.51. Regarding TGAGCAGCAT, the switch fluorescence ratio amounted to 0.997. As to TTCACTCTTA, the switch fluorescence ratio turned out to be 0.991.

Take AGTAAAAAC: the switch fluorescence ratio turned out to be 1. The result for GCTTCCACGA reads 1.15; that for TATTAGGAGA, 1.01; that for GGGTTGAT, 0.987.

In the case of AATCCATATA, the switch fluorescence ratio was found to be 1.02.

For the sequence ACCCATTGTC, the switch fluorescence ratio turned out to be 1.05. As to CCCGTTCGTC, the switch fluorescence ratio came out at 1.02.

Consider TTCGAGTTTC, for which the switch fluorescence ratio stood at 0.975.

Consider CTAGCGTAAC, for which the switch fluorescence ratio is 1.31.

As to CACCAAATTC, the switch fluorescence ratio was found to be 2.09. The result for TCAGGCACCT reads 1.14. The figure for AGGCTAATTG is 0.999. In the case of TGATAGTGGA, the switch fluorescence ratio came out at 1. Turning to TATTGCGGAT, the switch fluorescence ratio turned out to be 1.05.

With TGGGGCACCT, the switch fluorescence ratio turned out to be 0.984. The result for GCTTCATCGG reads 1.21; that for ATATGTCCCC, 1.04; that for AGGTGACTTT, 1.05.

Take ATACGTATTA: the switch fluorescence ratio amounted to 1.09. As to GCCTATTAAG, the switch fluorescence ratio stood at 0.989. The result for CTGTGCTGGT reads 0.986; that for GCCGTAAGG, 0.947; that for AATACGGAG, 0.946. The figure for GTCTCCGGGG is 0.962. The result for TGTTCATAG reads 1.04. With AGCGATATCT, the switch fluorescence ratio amounted to 1.56. Turning to CAAGTTAGAG, the switch fluorescence ratio stood at 0.984. The result for TTTCGTTGGG reads 0.98. The figure for ACATTAGTCG is 1.03; for GTTCTACGAG it is 1. For ATACGAAAGC, the switch fluorescence ratio turned out to be 1.21. Consider CTGAGAAAG, for which the switch fluorescence ratio was 1.04. For the sequence TTGGTACCCA, the switch fluorescence ratio was 1.01. The result for AGGATATTGC reads 0.978; that for ATCCGGGAGT, 0.982. The result for TAGTTGTT reads 0.984; that for ATCCTAGTCA, 0.991; that for TTCTGTGAGT, 1.04. The result for CAATGGACCC reads 1.04; that for GATAGTGTGT, 0.981; that for TGTCCCGGAT, 1.06. TCCTGAGTGT: the switch fluorescence ratio turned out to be 1. The figure for TGCGGTGCAT is 0.992.

As for TTCGTCACCC, the switch fluorescence ratio worked out at 0.952. The figure for TCCCTGATTC is 1.04; for AAGGTACTGG it is 1.02. The figure for GGAAAACAAT is 0.978. Take AAACAGGACA: the switch fluorescence ratio is 1.02.

Turning to TCGAACTTCT, the switch fluorescence ratio amounted to 1.02. Regarding GTTAGAAGAG, the switch fluorescence ratio was 0.987.

Regarding CGGGAGGCTC, the switch fluorescence ratio stood at 1.02.

Regarding ATAAGATCGG, the switch fluorescence ratio stood at 0.954. The figure for TCCATTATAC is 1.6; for CATTATGAAC it is 1.04; for AATCAACAGT it is 1.01. With TTCGCGGTAC, the switch fluorescence ratio is 2.27. The result for TACTGACCAA reads 1.13. The figure for CCTGGCGATA is 3.43; for TTTTTAGTT it is 0.959.

AGGCCTTTT: the switch fluorescence ratio amounted to 1.02.
